Measurements reported in the supplement of paper PMC3334620.
Whole data set: some 33,000 sequences, median “E-score (-0.5 to 0.5)” near -0.011, cut for the highest 2% near 0.28. This is one part of the list.

Biological target: T1, Gcr1 (UniProt P07261)
T1 sequence: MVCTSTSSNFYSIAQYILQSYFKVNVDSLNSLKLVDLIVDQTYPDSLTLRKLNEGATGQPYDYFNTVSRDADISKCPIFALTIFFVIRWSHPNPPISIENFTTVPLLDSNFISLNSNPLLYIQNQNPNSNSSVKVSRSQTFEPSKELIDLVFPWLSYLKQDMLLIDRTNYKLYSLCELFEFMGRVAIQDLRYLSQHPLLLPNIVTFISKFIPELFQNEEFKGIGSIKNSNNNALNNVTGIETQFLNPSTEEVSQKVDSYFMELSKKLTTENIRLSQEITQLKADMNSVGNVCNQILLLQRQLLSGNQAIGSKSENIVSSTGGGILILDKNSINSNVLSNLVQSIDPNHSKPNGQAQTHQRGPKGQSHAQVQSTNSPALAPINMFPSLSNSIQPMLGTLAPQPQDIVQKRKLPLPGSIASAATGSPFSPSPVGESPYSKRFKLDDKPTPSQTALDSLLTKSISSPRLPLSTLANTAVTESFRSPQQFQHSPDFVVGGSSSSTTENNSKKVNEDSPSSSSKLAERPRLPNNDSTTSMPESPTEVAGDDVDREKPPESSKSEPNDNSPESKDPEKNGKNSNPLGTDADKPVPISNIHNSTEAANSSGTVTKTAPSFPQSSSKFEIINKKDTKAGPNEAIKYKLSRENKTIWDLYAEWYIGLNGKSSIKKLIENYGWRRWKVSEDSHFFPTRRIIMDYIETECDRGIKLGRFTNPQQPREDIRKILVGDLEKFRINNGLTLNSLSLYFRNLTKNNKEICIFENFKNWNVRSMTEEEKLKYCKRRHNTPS
Assay: PBM E-score (8-mer binding enrichment) (E-score (-0.5 to 0.5)); higher = stronger / more preferred TF binding; most listed sequences are background and not binding sites
Conditions: protein concentration: 100 nM; construct: GST-full length
Summary of the method: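 Universal all-10-mer Agilent arrays, double-stranded by primer extension on fresh or once-stripped slides, were probed with about 100-200 nM GST-tagged yeast transcription factors made by PURExpress. Fluorescent anti-GST detected bound protein, and masliner normalised the scans. E-scores from the Universal PBM Analysis Suite were given to each ungapped eight-base word pooled with its reverse complement.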

Row | Sequence | PBM E-score
1 | GAATGGAC | -0.187
2 | CCGTATTA | 0.00072
3 | AAATATGC | -0.177
4 | TAGGTATA | 0.136
5 | ACTCGGAC | -0.0825
6 | ATGACGAA | -0.033
7 | CTACCAGC | -0.0567
8 | ACTACAGG | 0.077
9 | CAGAGGGC | -0.303
10 | AGTATGAA | -0.0877
11 | AGTTTGAG | 0.177
12 | AGCCAGTC | -0.0837
13 | CCGTGGGC | -0.0724
14 | AGAAGCGG | 0.267
15 | ACTAAGCT | -0.0155
16 | CACCACCG | -0.0609
17 | AGACTGCC | -0.197
18 | CTTATAGC | -0.0453
19 | CATCCAAC | -0.0403
20 | AGGTACCC | 0.0648
21 | GACGTTGC | 0.163
22 | ATATGCGC | 0.0648
23 | ATATCATA | -0.0734
24 | ATGAGGCA | -0.0656
25 | GGCCGTGA | -0.26

Row | Sequence | PBM E-score
26 | ATAGGGGA | 0.114
27 | GCAGTCGC | -0.0933
28 | CAAACTTG | 0.00459
29 | CAATGCTC | -0.174
30 | ATTGTAAG | -0.0855
31 | AATGCCGC | -0.178
32 | CGGCACCG | 0.143
33 | GAACAACC | -0.0951
34 | CACGACTC | 0.107
35 | TAGCTAGA | -0.132
36 | AAGTACGG | 0.0124
37 | AACCCGGG | 0.0515
38 | GAGGGTGA | -0.0792
39 | AAGTCCCC | -0.0218
40 | CATAGTAG | 0.138
41 | CTATGAGC | -0.157
42 | TCAACAAA | 0.103
43 | GTGCCTGA | 0.0614
44 | AACACATA | 0.12
45 | GAAAAGGC | -0.195
46 | ATATGCCA | -0.148
47 | AACCCGGT | -0.041
48 | TACACCGA | 0.0437
49 | CTTGCTTA | -0.176
50 | CAAGAGCA | -0.105

Row | Sequence | PBM E-score
51 | ATCCACCA | 0.146
52 | CCACGCAA | 0.025
53 | GAAGAGCA | -0.0362
54 | ACGCGCAC | -0.0501
55 | AATCCTGC | -0.188
56 | AAAGAGAT | -0.117
57 | TACAGATA | -0.0799
58 | CCACCGAC | -0.189
59 | TAGCTGCA | -0.0344
60 | ATATGGGC | 0.111
61 | AAACGATG | 0.0379
62 | ACACGGTA | -0.0843
63 | ACAACGGT | -0.182
64 | ACTCGAGT | 0.0795
65 | CACCCAGC | -0.16
66 | AACCCGTT | 0.0945
67 | GCTCAGAC | 0.161
68 | TAGTTGGA | 0.138
69 | AGACGGTA | 0.039
70 | TCGGCTAA | 0.0565
71 | AGAATGAA | 0.0686
72 | CGCCTCCC | 0.0753
73 | GAAGCTCA | 0.224
74 | AATTGGGG | 0.235
75 | AAAACGGG | 0.134

Row | Sequence | PBM E-score
76 | AGGCAGCC | 0.382
77 | CAGTGGAA | 0.244
78 | GTTACGCA | -0.0236
79 | CCGCATCA | 0.103
80 | CAGTACCA | 0.0486
81 | AGATCCTG | 0.197
82 | CCAGAGCA | 0.141
83 | ACGATTAC | -0.146
84 | GATTAGGC | -0.0727
85 | CATGGCCA | -0.176
86 | CGGATACA | 0.123
87 | AATTGACG | 0.0162
88 | CCTTAACC | -0.119
89 | AGCGGGAA | 0.142
90 | CCCCTCTC | -0.317
91 | ATGATCGC | -0.116
92 | CTTCCTCA | 0.264
93 | AATTGATA | -0.0138
94 | ATGACACA | 0.0727
95 | ATGTCATG | 0.046
96 | GCAAGCAC | -0.135
97 | TATACACA | -0.0787
98 | AAGAACTC | -0.0866
99 | GCCTGAGA | -0.0639
100 | CAGTTAGA | -0.145

Row | Sequence | PBM E-score
101 | ATTCGTAA | 0.131
102 | GATACCGC | 0.146
103 | ATCATGTA | 0.146
104 | CGAGACCA | -0.1
105 | CGTCACAA | -0.04
106 | ACAAAATG | 0.00734
107 | GGTAGCGA | 0.00523
108 | CTCGTTCC | -0.124
109 | CTACAAGC | 0.0109
110 | CTAAGGTC | -0.174
111 | GGACGAGA | -0.149
112 | CATGGGCG | -0.105
113 | ATTCTATA | 0.073
114 | TCCTATCA | 0.0175
115 | ATACGCTG | 0.199
116 | CGAGGGAC | -0.0995
117 | CTACCTAG | 0.0487
118 | AAGGTAAT | -0.00255
119 | AACTGGCG | 0.0962
120 | CGATCGTA | 0.11
121 | AAGAATGG | 0.0959
122 | CTGCCCTA | -0.0351
123 | TAGGAGCA | 0.0796
124 | AATATTTC | 0.146
125 | AGTTTGCG | 0.145

Row | Sequence | PBM E-score
126 | CTAAGCCC | -0.155
127 | GATGTCGA | 0.0577
128 | GCGGTTCC | 0.314
129 | AAACGCGT | -0.103
130 | AACTCCAT | -0.178
131 | AAACCAGT | 0.0252
132 | CGGCCGCA | -0.114
133 | CAATCTCA | 0.101
134 | CGAACTCA | 0.108
135 | ATACTCCA | -0.209
136 | ACCCTGTG | -0.161
137 | CCCGGTTA | -0.00373
138 | GCAGCCAC | 0.383
139 | TCGAGAGA | -0.102
140 | GCACGACA | -0.225
141 | GTGATTAA | 0.0979
142 | GATTCTAC | 0.0244
143 | ACGGAATC | 0.234
144 | AAAAGTCG | -0.0821
145 | AACGCAAG | -8e-05
146 | CAAGTCCA | -0.121
147 | CGAATAAG | -0.129
148 | CAACACGA | 0.0495
149 | CAACCCCC | -0.253
150 | CGGCCCGA | -0.219

Row | Sequence | PBM E-score
151 | GCCTACGA | -0.0809
152 | ACCACGCC | -0.223
153 | TCGACCGA | -0.0136
154 | GTATCGTA | 0.118
155 | GACAATCC | 0.0226
156 | TAAGTCAA | -0.193
157 | CTTATAGA | 0.214
158 | ACCATTGA | 0.173
159 | AAGCAAGA | -0.0505
160 | CCAAAAAC | 0.217
161 | AGATCTCG | -0.17
162 | CACATTCA | -0.16
163 | CAGACCGC | -0.0691
164 | ACTATCAG | -0.119
165 | AATCAGTC | 0.0549
166 | ATGCTAGC | 0.0479
167 | AGTACTGA | -0.0249
168 | ACCGGGCG | -0.122
169 | CAATTGGA | -0.0115
170 | ATGGTTTC | 0.0478
171 | CTAATGGC | 0.0834
172 | AGCGTGCA | -0.0882
